Experimental data taken from the supplement of paper PMC11417369.
± gives the standard deviation of the averaged measurements. The list shows a part of the results.

System: PfAP2-LT AP2 domain (GST-tagged)
Assay: gcPBM binding intensity (ln(normalized median fluorescence intensity)); higher = stronger DNA binding
Method in brief: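 For binding intensity, the highest Masliner-normalised natural-log median intensity across replicate spots of either probe orientation was taken. Protein bound to the array was stained with Alexa488 anti-GST antibody and scanned at 488 nm. The protein, GST-tagged P. falciparum DNA-binding domains from E. coli at about 25 μg on average, had been applied for 1 h to an Agilent 4 × 180k array of primer-extended double-stranded 36-bp intergenic genomic probes and negative controls.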

| Sequence | gcPBM binding intensity (ln) |
| --- | --- |
| TTTCTCCCATTTTTTAGTACACAAAATATATATGTA [XGTACX_site7218] | 8.7 ± 0.41 |
| GATGGATTTATTTAAAGTACATATTTAAAAAACTGT [XGTACX_site7567] | 8.51 ± 0.49 |
| AAAGTAAAAGAAAGCACACACACATGTATATATGTA [CACACA_site3857] | 9.57 ± 0.34 |
| TTTATACTATAATTATGTACTTATAAAAGGAATAAA [XGTACX_site8027] | 8.26 ± 0.42 |
| ATGTAAATACATATATGTACACAAATATATATATAT [XGTACX_site3537] | 9.33 ± 0.33 |
| ATAAACACATCTATATGTACATATATATATATATAC [XGTACX_site347] | 9.28 ± 0.26 |
| TATATAAATATACATTGTACTCAACATTTTCATTAA [XGTACX_site3690] | 8.58 ± 0.37 |
| TATATTAAATAAAAAGTGCATGTCTCATAAGATGGA [GTGCAC_site9520] | 8.64 ± 0.46 |
| ATAGGGAATTTATGCACACAGTTAAGGGGGAAAATT [CACACA_site5183] | 9.34 ± 0.19 |
| ATAAAATGTTAAGGGTGTACTTTACACATCTCCTAT [XGTACX_site4699] | 8.83 ± 0.41 |
| TATAAATAAAGCAGTACACACATTTATTTTAGATAC [CACACA_site7566] | 8.93 ± 0.42 |
| TATAAGATTATACAAAGTACATATAAATAATATATT [XGTACX_site1917] | 8.61 ± 0.47 |
| ATATATATATAAATATGTACATATATATATTATATA [XGTACX_site120] | 8.77 ± 0.36 |
| TCCTCTTTTATTTTTACACACGCGTAAACATATATA [CACACA_site667] | 9.26 ± 0.42 |
| TTAAAAAAAGATTATACACACACATATATAAACATA [CACACA_site8136] | 9.28 ± 0.28 |
| ATGGGTTAAAAATGCACACAAAAAAATATACAGATA [CACACA_site4321] | 9.17 ± 0.4 |
| TGAAATAAAAAATATAGTACTCGTTCGTAACCAAAA [XGTACX_site413] | 8.73 ± 0.43 |
| TGTATTAATAAAAATACACACATCATATTATAGAAA [CACACA_site7629] | 8.86 ± 0.33 |
| ATATATAAGGATGTCACACATAAATATTAACACTAA [CACACA_site5101] | 8.8 ± 0.47 |
| TTCAATTTTTTATGAACACACAAAAAAAAAAAAAAA [CACACA_site2533] | 8.4 ± 0.34 |
| ACATAATTAACAAATACACACACACCCACCCACAAA [CACACA_site8069] | 10.3 ± 0.13 |
| TTATATTATTTTTATACATGCATTTCTATATATTTT [TGCATGCA_site164] | 8.96 ± 0.4 |

| Sequence | gcPBM binding intensity (ln) |
| --- | --- |
| ATTTGTGATTTGTGTGTGCACGTATTTACAGAACAA [GTGCAC_site9498] | 9.21 ± 0.37 |
| AAGAAAAAATATATATATATATATATATATAATATG [TGCATGCA_negctrl_site417] | 9.25 ± 0.62 |
| ATCCATCTTTTAATTTGTACTTATTCTTTTTTCTTT [XGTACX_site5299] | 9.05 ± 0.5 |
| ATATATATATGTAATAGTACATATGATAGTTTGTCA [XGTACX_site1545] | 9.03 ± 0.49 |
| ATTAGTTTTATATATAGTACATATAATTTTGAAGGT [XGTACX_site7445] | 8.74 ± 0.32 |
| AATATATATATATTATCACACACTCACGTTTGACAA [CACACA_site8130] | 9.06 ± 0.37 |
| TATGATATATATAATACACACATATACATAAGATCT [CACACA_site1119] | 9.06 ± 0.31 |
| TAAAAAAAACGAACAAGTACACATAAAAAAAAATTA [XGTACX_site5982] | 8.87 ± 0.46 |
| ATTATATCATATATATGTACACATATATAACATGAT [XGTACX_site7] | 8.86 ± 0.26 |
| TTGTAATTTATTCAAACACACAATTTGGACCTTTTT [CACACA_site1063] | 8.79 ± 0.51 |
| TATTCATAATTTTAATGTACAAAATGGTTTGTAATA [XGTACX_site8493] | 8.45 ± 0.48 |
| AAAGATAAATTAAAAAGTACATATTTATTCAATGTA [XGTACX_site8543] | 8.52 ± 0.49 |
| TATAATAATTAAAAGTGTACTAAATTTTTACATATA [XGTACX_site2523] | 8.37 ± 0.33 |
| TTTTATTTATCTTAATGTACACATTTATATATATAT [XGTACX_site8588] | 8.97 ± 0.45 |
| CACTTTTTTTTTTACTGTACATATACAAATTAAAAA [XGTACX_site1565] | 8.47 ± 0.28 |
| TTATATATATTTAAAAAAATAACATAAATAAATAAA [CACACA_negctrl_site347] | 8.29 ± 0.52 |
| GTAAATATAAACTCAGCACACAAACATATATATGTC [CACACA_site9326] | 9.22 ± 0.4 |
| TTAAATAAAAGGTTTAGTACTTAAAATAAGAAATGA [XGTACX_site6341] | 8.46 ± 0.51 |
| TTTTTTTTCAATGGTTGTACAAAGTAAAACAACAAA [XGTACX_site1582] | 8.35 ± 0.37 |
| TGGGTGTAGAACAATTGTACTTTGTAAAAATATAAG [XGTACX_site8464] | 8.77 ± 0.57 |
| ATTAAGTATATTTCTGCACACAAAAAAAAAAACCAA [CACACA_site9342] | 9.12 ± 0.47 |
| GTATATATATATAAAAGTACATGTTATGAAAAAAAA [XGTACX_site5410] | 8.87 ± 0.47 |
